# Laboratory results reported in the supplement of paper PMC8728848.
# This is one part of the list.
# B1: AT1G15820(NC) (Arabidopsis thaliana) (protein)
# chain: MAMAVSGAVLSGLGSSFLTGGKRGATALASGVGDAIAPFSFGSLLGTQLLLMGWVESKRWVDFFNPDSQSVEWATPWSKTAENFANYTGDQGYPGGRFFDPLGLAGKNRDGVYEPDFEKLERLKLAEIKHSRLAMVAMLIFYFEAGQGKTPLGALGL
# Assays:
# Test in all cases: glycan array binding signal (z-score within array); higher = stronger binding
# Details in all cases: glycan notation: IUPAC condensed, linker removed
# Fuc(a1-2)Gal = target: Fuc(a1-2)Gal
# Outline: (§1)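 The binding signal is a Z-score computed within each array and averaged over linkers. Arrays of the same protein sequence at different concentrations or buffers were also averaged together. Data originate from 3228 arrays in the Consortium for Functional Glycomics database, kept only where the protein sequence was available.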
# Fuc(a1-2)Gal(b1-3)GalNAc = target: Fuc(a1-2)Gal(b1-3)GalNAc
# Outline: as §1
# [1] = target: Fuc(a1-2)Gal(b1-3)GalNAc(a1-3)[Fuc(a1-2)]Gal(b1-4)Glc
# Outline: as §1
# [2] = target: Fuc(a1-2)Gal(b1-3)GalNAc(a1-3)[Fuc(a1-2)]Gal(b1-4)GlcNAc
# Outline: as §1
# [3] = target: Fuc(a1-2)Gal(b1-3)GalNAc(b1-3)Gal
# Outline: as §1
# [4] = target: Fuc(a1-2)Gal(b1-3)GalNAc(b1-3)Gal(a1-4)Gal(b1-4)Glc
# Outline: as §1
# [5] = target: Fuc(a1-2)Gal(b1-3)GalNAc(b1-4)[Neu5Ac(a2-3)]Gal(b1-4)Glc
# Outline: as §1
# Fuc(a1-2)Gal(b1-3)GlcNAc = target: Fuc(a1-2)Gal(b1-3)GlcNAc
# Outline: as §1
# [6] = target: Fuc(a1-2)Gal(b1-3)GlcNAc(b1-2)Man(a1-3)[Fuc(a1-2)Gal(b1-3)GlcNAc(b1-2)Man(a1-6)]Man(b1-4)GlcNAc(b1-4)GlcNAc
# Outline: as §1
# [7] = target: Fuc(a1-2)Gal(b1-3)GlcNAc(b1-2)Man(a1-3)[Fuc(a1-2)Gal(b1-3)GlcNAc(b1-2)Man(a1-6)]Man(b1-4)GlcNAc(b1-4)[Fuc(a1-6)]GlcNAc
# Outline: as §1
# [8] = target: Fuc(a1-2)Gal(b1-3)GlcNAc(b1-3)Gal(b1-4)Glc
# Outline: as §1
# [9] = target: Fuc(a1-2)Gal(b1-3)GlcNAc(b1-3)GalNAc
# Outline: as §1
# [10] = target: Fuc(a1-2)Gal(b1-3)GlcNAc(b1-3)[Fuc(a1-2)Gal(b1-3)GlcNAc(b1-6)]GalNAc
# Outline: as §1
# [11] = target: Fuc(a1-2)Gal(b1-3)GlcNAc(b1-3)[Gal(b1-4)GlcNAc(b1-6)]Gal(b1-4)Glc
# Outline: as §1
# [12] = target: Fuc(a1-2)Gal(b1-3)GlcNAc(b1-3)[Neu5Ac(a2-6)Gal(b1-4)GlcNAc(b1-6)]Gal(b1-4)Glc
# Outline: as §1
# [13] = target: Fuc(a1-2)Gal(b1-3)GlcNAc6S
# Outline: as §1
# [14] = target: Fuc(a1-2)Gal(b1-3)[Fuc(a1-4)]GlcNAc
# Outline: as §1
# [15] = target: Fuc(a1-2)Gal(b1-3)[Fuc(a1-4)]GlcNAc(b1-2)Man(a1-3)[Fuc(a1-2)Gal(b1-3)[Fuc(a1-4)]GlcNAc(b1-2)Man(a1-3)]Man(b1-4)GlcNAc(b1-4)GlcNAc
# Outline: as §1
# [16] = target: Fuc(a1-2)Gal(b1-3)[Fuc(a1-4)]GlcNAc(b1-2)Man(a1-3)[Fuc(a1-2)Gal(b1-3)[Fuc(a1-4)]GlcNAc(b1-2)Man(a1-6)]Man(b1-4)GlcNAc(b1-4)[Fuc(a1-6)]GlcNAc(b1-4)[Fuc(a1-6)]GlcNAc
# Outline: as §1
# [17] = target: Fuc(a1-2)Gal(b1-3)[Fuc(a1-4)]GlcNAc(b1-3)[Fuc(a1-3)[Gal(b1-4)]GlcNAc(b1-6)]Gal(b1-4)Glc
# Outline: as §1
# [18] = target: Fuc(a1-2)Gal(b1-3)[Fuc(a1-4)]GlcNAc(b1-3)[Gal(b1-4)GlcNAc(b1-6)]Gal(b1-4)Glc
# Outline: as §1
# Fuc(a1-2)Gal(b1-4)Glc = target: Fuc(a1-2)Gal(b1-4)Glc
# Outline: as §1
# Fuc(a1-2)Gal(b1-4)Glc6S = target: Fuc(a1-2)Gal(b1-4)Glc6S
# Outline: as §1
# Fuc(a1-2)Gal(b1-4)GlcNAc = target: Fuc(a1-2)Gal(b1-4)GlcNAc
# Outline: as §1
# [19] = target: Fuc(a1-2)Gal(b1-4)GlcNAc(b1-2)Man
# Outline: as §1
# [20] = target: Fuc(a1-2)Gal(b1-4)GlcNAc(b1-2)Man(a1-3)[Fuc(a1-2)Gal(b1-4)GlcNAc(b1-2)Man(a1-6)]Man(b1-4)GlcNAc(b1-4)GlcNAc
# Outline: as §1
# [21] = target: Fuc(a1-2)Gal(b1-4)GlcNAc(b1-2)Man(a1-3)[Fuc(a1-2)Gal(b1-4)GlcNAc(b1-2)Man(a1-6)]Man(b1-4)GlcNAc(b1-4)[Fuc(a1-6)]GlcNAc
# Outline: as §1
# [22] = target: Fuc(a1-2)Gal(b1-4)GlcNAc(b1-2)[Fuc(a1-2)Gal(b1-4)GlcNAc(b1-4)]Man(a1-3)[Fuc(a1-2)Gal(b1-4)GlcNAc(b1-2)Man(a1-6)]Man(b1-4)GlcNAc(b1-4)GlcNAc
# Outline: as §1
# [23] = target: Fuc(a1-2)Gal(b1-4)GlcNAc(b1-3)Gal(b1-4)GlcNAc
# Outline: as §1
# [24] = target: Fuc(a1-2)Gal(b1-4)GlcNAc(b1-3)Gal(b1-4)GlcNAc(b1-2)Man(a1-3)[Fuc(a1-2)Gal(b1-4)GlcNAc(b1-3)Gal(b1-4)GlcNAc(b1-2)Man(a1-6)]Man(b1-4)GlcNAc(b1-4)GlcNAc
# Outline: as §1
# [25] = target: Fuc(a1-2)Gal(b1-4)GlcNAc(b1-3)Gal(b1-4)GlcNAc(b1-3)Gal(b1-4)GlcNAc
# Outline: as §1
# [26] = target: Fuc(a1-2)Gal(b1-4)GlcNAc(b1-3)GalNAc
# Outline: as §1
# [27] = target: Fuc(a1-2)Gal(b1-4)GlcNAc(b1-3)[Fuc(a1-2)Gal(b1-4)GlcNAc(b1-6)]GalNAc
# Outline: as §1
# [28] = target: Fuc(a1-2)Gal(b1-4)GlcNAc(b1-3)[Fuc(a1-3)[Gal(b1-4)]GlcNAc(b1-6)]Gal(b1-4)Glc
# Outline: as §1
# [29] = target: Fuc(a1-2)Gal(b1-4)GlcNAc(b1-6)GalNAc
# Outline: as §1
# [30] = target: Fuc(a1-2)Gal(b1-4)GlcNAc6S
# Outline: as §1
# [31] = target: Fuc(a1-2)Gal(b1-4)[Fuc(a1-3)]GlcNAc
# Outline: as §1
# [32] = target: Fuc(a1-2)Gal(b1-4)[Fuc(a1-3)]GlcNAc(b1-2)Man(a1-3)[Fuc(a1-2)Gal(b1-4)[Fuc(a1-3)]GlcNAc(b1-2)Man(a1-6)]Man(b1-4)GlcNAc(b1-4)[Fuc(a1-6)]GlcNAc
# Outline: as §1
# [33] = target: Fuc(a1-2)Gal(b1-4)[Fuc(a1-3)]GlcNAc(b1-2)[Fuc(a1-2)Gal(b1-4)[Fuc(a1-3)]GlcNAc(b1-4)]Man(a1-3)[Fuc(a1-2)Gal(b1-4)[Fuc(a1-3)]GlcNAc(b1-2)Man(a1-6)]Man(b1-4)GlcNAc(b1-4)GlcNAc
# Outline: as §1
# [34] = target: Fuc(a1-2)Gal(b1-4)[Fuc(a1-3)]GlcNAc(b1-3)Gal(b1-4)[Fuc(a1-3)]GlcNAc
# Outline: as §1
# [35] = target: Fuc(a1-2)Gal(b1-4)[Fuc(a1-3)]GlcNAc(b1-3)Gal(b1-4)[Fuc(a1-3)]GlcNAc(b1-3)Gal(b1-4)[Fuc(a1-3)]GlcNAc
# Outline: as §1
# [36] = target: Fuc(a1-2)Gal(b1-4)[Fuc(a1-3)]GlcNAc(b1-3)GalNAc
# Outline: as §1
# [37] = target: Fuc(a1-2)Gal(b1-4)[Fuc(a1-3)]GlcNAc(b1-3)[Neu5Ac(a2-6)Gal(b1-4)GlcNAc(b1-6)]Gal(b1-4)Glc
# Outline: as §1
# [38] = target: Fuc(a1-2)Gal3S(b1-4)GlcNAc
# Outline: as §1
# [39] = target: Fuc(a1-2)Gal6S(b1-3)GlcNAc
# Outline: as §1
binder,measurement,setting,value
B1,glycan array binding signal (z-score),Fuc(a1-2)Gal,4.29
same,glycan array binding signal (z-score),Fuc(a1-2)Gal(b1-3)GalNAc,-0.293
same,glycan array binding signal (z-score),[1],-0.296
same,glycan array binding signal (z-score),[2],-0.041
same,glycan array binding signal (z-score),[3],1.29
same,glycan array binding signal (z-score),[4],-0.533
same,glycan array binding signal (z-score),[5],-0.345
same,glycan array binding signal (z-score),Fuc(a1-2)Gal(b1-3)GlcNAc,-0.076
same,glycan array binding signal (z-score),[6],-0.208
same,glycan array binding signal (z-score),[7],3.01
same,glycan array binding signal (z-score),[8],-0.235
same,glycan array binding signal (z-score),[9],1.63
same,glycan array binding signal (z-score),[10],-0.452
same,glycan array binding signal (z-score),[11],-0.55
same,glycan array binding signal (z-score),[12],-0.346
same,glycan array binding signal (z-score),[13],-0.5
same,glycan array binding signal (z-score),[14],-0.307
same,glycan array binding signal (z-score),[15],-0.086
same,glycan array binding signal (z-score),[16],-0.234
same,glycan array binding signal (z-score),[17],-0.332
same,glycan array binding signal (z-score),[18],-0.377
same,glycan array binding signal (z-score),Fuc(a1-2)Gal(b1-4)Glc,-0.522
same,glycan array binding signal (z-score),Fuc(a1-2)Gal(b1-4)Glc6S,-0.066
same,glycan array binding signal (z-score),Fuc(a1-2)Gal(b1-4)GlcNAc,-0.457
same,glycan array binding signal (z-score),[19],0.457
same,glycan array binding signal (z-score),[20],0.304
same,glycan array binding signal (z-score),[21],-0.145
same,glycan array binding signal (z-score),[22],-0.399
same,glycan array binding signal (z-score),[23],-0.234
same,glycan array binding signal (z-score),[24],-0.445
same,glycan array binding signal (z-score),[25],-0.439
same,glycan array binding signal (z-score),[26],-0.236
same,glycan array binding signal (z-score),[27],-0.499
same,glycan array binding signal (z-score),[28],-0.22
same,glycan array binding signal (z-score),[29],-0.346
same,glycan array binding signal (z-score),[30],-0.752
same,glycan array binding signal (z-score),[31],-0.131
same,glycan array binding signal (z-score),[32],-0.351
same,glycan array binding signal (z-score),[33],-0.506
same,glycan array binding signal (z-score),[34],-0.174
same,glycan array binding signal (z-score),[35],-0.429
same,glycan array binding signal (z-score),[36],1.13
same,glycan array binding signal (z-score),[37],-0.258
same,glycan array binding signal (z-score),[38],-0.477
same,glycan array binding signal (z-score),[39],-0.362
